Measurements as given in ChEMBL document CHEMBL4888484, “Replenishing the malaria drug discovery pipeline: Screening and hit evaluation of the MMV Hit Generation Library 1 (HGL1) against asexual blood stage Plasmodium falciparum ,using a nano luciferase reporter read-out” (2022).
Out of some 150,000 compounds screened, about 540 (0.36%) showed an effect of 50% or more. The list shows a part of the results.

test system: Plasmodium falciparum; assay: Primary screen in NF54 nanoGlo assay, in single point, at 2uM, 72h; a lower Z score goes with more inhibition; type: functional, Erythrocyte; conditions: timepoint 72 hour

SMILES | % Inhibition [%] | Z score
CC[C@H]1CN(C)CCCN1S(=O)(=O)c1cc(OC)ns1 | 8 | -0.96
COCC1(C)CCN(C(=O)[C@@H]2NCc3ncncc32)CC1 | -8 | 1.65
CCCC1CCC(C(=O)Nn2c(-c3cccc(OC)c3)nc3ccccc3c2=O)CC1 (stereo not drawn) | -2 | 0.33
Cc1cccc([C@@H]2CC(=O)N(CC(=O)NCc3ccccc3)C(=O)N2)c1 | 1 | -0.11
O=C(NCCc1ccc2c(c1)OCO2)c1cnn2c(-c3cccs3)ccnc12 | -7 | 0.96
O=C(NCc1nnc[nH]1)c1cc(-c2ccccc2)ccc1Cl | -13 | 1.36
COc1ccc(-n2c(-c3ccccc3)cn(-c3ccccc3)c2=O)cc1 | -1 | 0.11
Cc1nc([C@H](C)NC(=O)Cc2sc(N)nc2C)c(C)s1 | -12 | 1.61
COc1ccc(C(C)(C)c2nc([C@H]3CN4CCC[C@H]4CO3)no2)cc1 | -3 | 0.53
O=C(NC[C@H](O)Cc1ccccc1)c1cccc2c1CCOC2 | -6 | 1.1
Cc1ccc(C(=O)N2CC3CCC3(Nc3ncncc3Cl)C2)o1 (stereo not drawn) | -10 | 1.05
O=C1NC(=O)C2(CCCN(C(=O)C3CCCc4sccc43)C2)N1 (stereo not drawn) | 2 | -0.4
Cc1ncc(C)c(NC(=O)[C@H]2C[C@@H]2c2ccc(OC(F)F)cc2)n1 | -1 | 0.14
O=C(NC[C@H]1COc2ccccc2O1)C1CCN(C(=O)c2ccco2)CC1 | -10 | 1.33
O=C(Cc1ccc2cn[nH]c2c1)NC1CCC2CCCC2C1 (stereo not drawn) | -3 | 0.41
CCOc1cccc(CCNC(=O)c2cc(C)sn2)n1 | 2 | -0.25
COc1cccc2c(C(=O)N[C@H]3CCN(C(C)(C)C)C3=O)n[nH]c12 | -12 | 1.33
C[C@@H]1CC[C@H](CO)N1C(=O)Cc1cccc(C(F)(F)F)n1 | 3 | -0.37
CCC1(CC)NC(=O)N(c2ccc(OC)nn2)C1=O | -9 | 1.23
CCN1CCN(C(=O)c2cnc(-c3ccc(F)cc3)nc2N(CC)CC)CC1 | -7 | 1.13
Cc1cccc2c1OCC[C@H]2NC(=O)N1CC2CCC(C1)O2 | -11 | 2.33
CC(C)[C@H](NCc1ccc2c(c1)OCCO2)c1nc(-c2ccccc2)no1 | -3 | 0.34
CCc1nnc(CN(C)C(=O)NCCc2noc(C3CCCC3)n2)o1 | 1 | -0.13
COc1ccc(CCC(=O)N2CCn3c2nc2ccccc23)cc1 | 1 | -0.24
Cc1cn([C@@H](C)c2ccccc2)nc1NC(=O)NCC1CC1 | -3 | 0.52
CCN(CC)S(=O)(=O)c1ccc(NC(=O)CN2Cc3ccccc3C[C@H]2C(=O)N2CCCC2)cc1 | -2 | 0.23
Cc1cccc(N2CCN(c3ccc(-c4nc(-c5cccc(F)c5)no4)cn3)C[C@@H]2C)c1 | -4 | 0.72

SMILES | % Inhibition [%] | Z score
CC(C)(C)c1ncc(C(=O)N2CCc3c(CN4CCCC4)cccc32)cn1 | -15 | 2.85
O=C(NCc1c(F)cccc1F)N1C2CCC1CC(Oc1ccccn1)C2 (stereo not drawn) | -7 | 1.31
O=C(CCC1CCN(S(=O)(=O)c2cccc(F)c2)CC1)NCCN1CCOCC1 | -10 | 1.37
Cc1cc(C(=O)NCCOCCn2ccnc2)nn1C | -13 | 1.45
Nc1ccc(Oc2nccs2)c(Cl)c1 | -2 | 0.26
CN(C[C@H]1CCCO1)c1ncnc2[nH]ccc12 | 7 | -0.83
CCn1nc2n(c1=O)CCN(S(=O)(=O)c1ccc(OC)c(OC)c1)[C@@H]2c1ccccc1 | -10 | 1.53
COCCn1c(C[C@H]2CCN(S(=O)(=O)c3cc(F)cc(F)c3)C2)nc2cccnc21 | -1 | 0.11
CN1CCN(C(=O)[C@H]2CCCN(c3nnc4ccc(C(F)(F)F)cn34)C2)CC1 | -7 | 0.78
Cc1cc(-c2nnc(CCC(=O)NC[C@@H]3C[C@@H]4C=C[C@@H]3C43CC3)o2)no1 | 7 | -0.9
CCN1CCN([C@@H](c2ccncc2)c2c(O)cc(C)n(Cc3ccccc3)c2=O)CC1 | 14 | -1.81
CCn1cc(C2OCCC2CNCc2cnc3cc(C)ccn23)cn1 (stereo not drawn) | -8 | 1.44
Cc1ncnc(N[C@@H](C)CCCC(C)(C)O)c1C | -1 | 0.07
C[C@H](NC(=O)NC[C@@H]1CCC[C@H]1O)c1nccs1 | 0 | -0.09
Cc1ncc2n1C[C@@H](C(=O)NCc1ccc(CO)c(F)c1)CC2 | -7 | 0.84
Cc1c(NC[C@H](C)c2ccccc2)cnn1C | -3 | 0.4
CCn1nnc2cc(C(=O)N(C)c3ccccc3)ccc21 | -9 | 1.64
Cc1cc(C)cc(CN(C)C(=O)c2cc(-c3ccn(C)n3)on2)c1 | 1 | -0.07
Cc1ccc(C(=O)N[C@@H]2C[C@H]3CC[C@@H]2C3)cc1 | -2 | 0.29
C[C@@H]1CN(C2CCN(C(=O)CCn3nnc4ccccc43)CC2)C[C@H](C)O1 | -13 | 2.76
COCCOc1cc(Cn2cccn2)ccn1 | 6 | -0.82
CC(Nc1ncc(C(F)(F)F)cc1Cl)C1CCCO1 (stereo not drawn) | -1 | 0.1
CC/C=C(\C)CN1C[C@H](N(C)C)C[C@H]1CO | 3 | -0.54
Cc1ccsc1CNC(=O)N(CC(C)(C)O)C(C)C | -3 | 0.44
CCc1ccc(N2C(=O)c3cc4ccc(OC)cc4n3C[C@@]2(C)C(=O)NC2CCCCCCC2)cc1 | 0 | 0.06
Cn1nc(C(=O)N2CC(C)(C)OC(C)(C)C2)cc1OC(F)F | -1 | 0.27
CC1(C)CN(C(=O)c2cn(C(C)(C)C)nn2)C[C@@H]1O | -2 | 0.42
